Laboratory results from PubChem BioAssay AID588855 (National Center for Advancing Translational Sciences (NCATS), 2011).
Several values for one entry are separate records, joined by “and”; a condition that tells them apart may be missing. Identical values can stand only once. The whole screen tested about 410,000 compounds, of which about 5,000 (1.2%) were called active. The shares of active, inactive and inconclusive entries below differ from those in the screen. The call rests on the fitted dose curve; in most records, active means well fitted inhibition curve with a large enough effect; inconclusive means small, poorly fitted or top-dose-only effect; inactive means no such curve, though single readings can be large or run the other way. A potency beside an inconclusive call is a rough fit, not a confirmed value.

assay: qHTS for Inhibitors of TGF-b; conditions: HepG2 CAGA-GFP TGF-b/SMAD3 reporter, GFP fluorescence, 18 h, TGF-beta stimulated, 500 pg/mL final; series mostly up to 46.1 µM; activity, negative = inhibition: at the top concentration; further: nearly all actives have a fitted effect of over 65% in size
Summary of the method: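 TGF-beta reporter screen: HEPG2 CAGA-GFP, 1% FBS, 500 pg/mL TGF-beta final, 18 h; per-cell GFP summed per well; curves fitted and categorized by class.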
On the % scale 0 is the no-effect control and ±100 the full control effect; potency means the concentration at half of the fitted maximal effect; tags describe the fitted curve by direction and shape.

Row | Compound | Potency | activity, negative = inhibition
1 | CCOC(=O)CC(=O)CSc1nc2c(cc1C#N)CCC2 | inconclusive: 35.5 µM [inhibitor, single point] | –
2 | CCn1c(O)c(N=NC(=O)c2cccc(S(=O)(=O)N3CCCCC3)c2)c2ccccc21 | inconclusive: 35.5 µM [inhibitor, single point] | –
3 | Cc1cccc(N2CCN(C(=O)c3sc4nc5n(c(=O)c4c3C)CCC5)CC2C)c1 (stereo not drawn) | inconclusive: 35.5 µM [inhibitor, single point] | –
4 | CCCCSCCCNC(=O)C1CCN(Cc2nc(-c3ccc(CC)cc3)oc2C)CC1 | inconclusive: 10 µM [inhibitor, partial curve, poor fit] | –
5 | O=C(NCC1CCCO1)c1cc2c([nH]c3ccccc32)c(-c2cccc(Br)c2)n1 (stereo not drawn) | – | inactive: 1.27%
6 | NC(Cc1ccc(C(F)(F)F)cc1)c1csc(NC(=O)Nc2ccccc2Oc2ccccc2)n1 (stereo not drawn) | active: 11.2 µM | –
7 | COc1ccc(-c2c(C#N)c(SCC(=O)Nc3ccc(C)c(C)c3)nc(C)c2C(=O)Nc2ccc(Cl)cc2)cc1 | inconclusive: 6.31 µM [inhibitor, partial curve, poor fit] | –
8 | COC(=O)[C@H](C)[C@H]1C[C@]1(C)[C@H](NC(=O)OCc1ccccc1)c1ccccc1 | inconclusive: 15.8 µM [inhibitor, single point] | –
9 | O=C(c1cccc2ccccc12)N1CCN(Cc2ccccc2F)CC1 | inconclusive: 35.5 µM [inhibitor, single point] | –
10 | COc1ccc(N(Cc2ccc(N(C)C)cc2)C(=O)c2ccc(S(C)(=O)=O)cc2)cc1 | – | inactive: 5.12%
11 | O=C(CCl)Nc1ccc(-c2ccccc2)cc1 | inconclusive: 20 µM [inhibitor, single point] | –
12 | O=C1C=C(c2ccccc2)C[C@@H](c2ccc(Cl)cc2)C1 | inconclusive: 35.5 µM [inhibitor, single point] | –
13 | Clc1ccc2nc(C3CCN(Cc4ccccc4)CC3)[nH]c2c1 | – | inactive: -7.87%
14 | NC(=O)c1ccsc1NC(=O)c1ccc([N+](=O)[O-])o1 | inconclusive: 15.8 µM [inhibitor, partial curve, poor fit] | –
15 | COC(=O)c1cnn(-c2ccc(F)cc2F)c1/C=N/NC(=S)NC(C)(C)C | – | inactive: -1.26%
16 | CCOC(=O)[C@@H]1[C@H]2COc3ccc(Br)cc3[C@H]2N2C(=O)N(c3ccc(OC)cc3)C(=O)[C@]12C | – | inactive: -1.11%
17 | COc1cc2c(cc1OC)-c1cc(=Nc3c(C)cc(C)cc3C)n(C)c(=O)n1CC2 | inconclusive: 22.4 µM [inhibitor, single point] | –
18 | Cn1nnnc1SCCCNCc1cc(Br)ccc1OCc1ccccc1 | inconclusive: 20 µM [inhibitor, partial curve, poor fit] | –
19 | O=C(Nc1cccc(F)c1)c1cc(S(=O)(=O)NCCC2=CCCCC2)ccc1F | inconclusive: 11.2 µM [inhibitor, partial curve, poor fit] | –
20 | CCOc1ccc(Nc2nc(Cc3nnc(SCC(=O)N(CC)CC)n3C)cs2)cc1 | inconclusive: 0.0891 µM [inhibitor, full curve, poor fit] | –
21 | Clc1ccc(-n2nnnc2-c2cnc3ccccc3c2-c2ccccc2)cc1 | inconclusive: 10 µM [inhibitor, partial curve, poor fit] | –

Row | Compound | Potency | activity, negative = inhibition
22 | CCCC(C)(C)C(=O)N1CCC1(C)C(=O)NS(=O)(=O)c1cccc(Cl)c1 (stereo not drawn) | – | inactive: 4.95%
23 | Cc1oc(-c2ccccc2Cl)nc1CS(=O)CC(=O)N1CCN(c2cccc(C(F)(F)F)c2)CC1 (stereo not drawn) | active: 11.2 µM | –
24 | COc1cccc(/C=C/c2ccncc2)c1OC | – | inactive: -4.28%
25 | CC1(C)CC(C)(c2ccc(O)cc2O)N(c2ccc3ccccc3c2)C(=S)N1 (stereo not drawn) | inconclusive: 35.5 µM [inhibitor, single point] | –
26 | O=C(SCC(O)C(O)CS)c1cccs1 (stereo not drawn) | – | inactive: 16.4%
27 | CCn1c(CNC(=O)C23CC4CC(CC(C4)C2)C3)nnc1SCC(=O)Nc1ccc(C)cc1 | inconclusive: 35.5 µM [inhibitor, single point] | –
28 | Cc1ccc(SCc2c(C#N)c3ccccc3n2C)cc1 | inconclusive: 10 µM [inhibitor, partial curve, poor fit] | –
29 | COc1ccc(Cc2c(-c3ccccc3)nc3c4ccccc4ccn23)c(C)c1 | inconclusive: 35.5 µM [inhibitor, single point] | –
30 | Cc1ccc2c(Sc3ccccc3)c(C(=O)NCc3ccccc3F)[nH]c2c1 | – | inactive: 4.19%
31 | O=C(c1ccc(Cn2cc(Cl)c([N+](=O)[O-])n2)cc1)N1CCN(Cc2ccccc2)CC1 | inconclusive: 35.5 µM [inhibitor, single point] | –
32 | O=C1CCCN1CCCNC(=S)Nc1ccc(Nc2ccccc2)cc1 | – | inactive: 0.816%
33 | COc1ccc(-n2c(-c3ccccc3F)nc3c(cnn3-c3ccc(C)cc3)c2=O)cc1 | inconclusive: 35.5 µM [inhibitor, single point] | –
34 | C=CS(=O)c1sc(Cl)c(N2CCOCC2)c1[N+](=O)[O-] (stereo not drawn) | active: 11.2 µM | –
35 | CN(C[C@H](Cc1ccccc1)N(C[C@@H](Cc1cccc2ccccc12)N(CCc1ccccc1)N=O)N=O)N=O | inconclusive: 3.16 µM [inhibitor, single point] | –
36 | CCCCC(=O)N1CC(=O)Nc2ccc(F)cc2C1c1ccc(F)cc1 (stereo not drawn) | inactive | –
37 | CCN(CC)C(=O)c1sc(NC(=O)c2ccoc2C)c(C(=O)OC)c1C | – | inactive: 7.52%
38 | COc1cc(OC)c(NC(=O)c2sc3nc4n(c(=O)c3c2C)CCCC4)cc1Cl | inconclusive: 0.0891 µM [inhibitor, full curve, poor fit] | –
39 | Cc1ccc(Cl)cc1N1CCN(C(=O)c2cc3c(=O)n(C)c4ccccc4c3n2C)CC1 | – | inactive: 3.59%
40 | OCCCn1c(CCCNc2nc(-c3cccc(Br)c3)cs2)nc2cc(Cl)c(N3CCCCC3)cc21 | active: 10 µM | –
41 | C1CN(CC2COC(CN3CCOCC3)CO2)CCO1 (stereo not drawn) | – | inactive: 8.76%
42 | Cc1ccc(/C(=N\O)c2oc3c(C)c4oc(=O)cc(C)c4cc3c2C)cc1 | inconclusive: 35.5 µM [inhibitor, single point] | –

Row | Compound | Potency | activity, negative = inhibition
43 | N#CC1=C(N)S[C@H](C(=O)C23CC4CC(CC(C4)C2)C3)[C@H]1c1ccncc1 | inconclusive: 20 µM [inhibitor, single point] | –
44 | CCCOc1cccc(C(=O)Nc2cc(-c3nc4ccccc4[nH]3)ccc2C)c1 | inconclusive: 17.8 µM [inhibitor, partial curve, poor fit] | –
45 | COc1ccc(-c2cc(-c3nnc(COC(=O)c4ccc(O)cc4)o3)c3ccccc3n2)cc1OC | – | inactive: 0.358%
46 | O=C(NC(=S)Nc1ccc(CN2CCCCC2)cc1)c1cccc(OCc2ccccc2)c1 | inconclusive: 35.5 µM [inhibitor, single point] | –
47 | COC(=O)c1cc2oc3ccccc3c2n1CC(=O)Nc1cccc(SC)c1 | inconclusive: 31.6 µM [inhibitor, single point] | –
48 | C[C@H](NC(=O)c1nc[nH]c1C(=O)N1CCN(C(=O)OC(C)(C)C)CC1)C(=O)OCc1ccccc1 | inconclusive: 3.98 µM [inhibitor, full curve, poor fit] | –
49 | COc1cc2c(cc1OC)CN(C(=O)c1ccc(-c3ccccc3)cc1)CC2 | inconclusive: 15.8 µM [inhibitor, single point] | –
50 | O=c1cc(CCl)nc2scc(-c3ccccc3)n12 | inconclusive: 35.5 µM [inhibitor, single point] | –
51 | COc1ccc(C2C(C(=O)Nc3ccccc3)=C(C)Nc3nc(-c4ccccc4)nn32)c(OC)c1 (stereo not drawn) | inconclusive: 35.5 µM [inhibitor, partial curve, poor fit] | –
52 | Cc1ccccc1NC(=O)Nc1csc2c1CCCC2 | inconclusive: 35.5 µM [inhibitor, partial curve, poor fit] | –
53 | O=C(CSc1nc2ccc([N+](=O)[O-])cc2[nH]1)c1ccc(Cl)cc1 | inconclusive: 11.2 µM [inhibitor, single point] | –
54 | CC1=CC(C)(C)N=C(Nc2nc(C)c3cc(C)cc(C)c3n2)N1 | inconclusive: 22.4 µM [inhibitor, single point] | –
55 | COc1ccc(NS(=O)(=O)c2cccc(C(=O)OCC(=O)c3c(N)n(C)c(=O)n(C)c3=O)c2)cc1 | inconclusive: 8.91 µM [inhibitor, single point] | –
56 | COc1ccc(C2(CN(C(C)=O)C(C)=O)CCCC2)cc1OC | inconclusive: 5.62 µM [inhibitor, single point] | –
57 | O=c1[nH]c(C2CCN(S(=O)(=O)c3ccc(S(=O)(=O)NC4CC4)cc3)CC2)nc2c1nnn2Cc1ccc(F)cc1 | inconclusive: 20 µM [inhibitor, single point] | –
58 | COc1ccc(OC2CCN(S(=O)(=O)c3cccc(F)c3)CC2)cc1 | inconclusive: 10 µM [inhibitor, single point] and inconclusive: 12.6 µM [inhibitor, partial curve, poor fit] | –
59 | COc1ccc2c(c1)C(C)CC(C)(C)N2C(=O)CSc1nc2ccccc2s1 (stereo not drawn) | inconclusive: 35.5 µM [inhibitor, single point] | –
60 | CC(C)=CCn1c2ccc(NC(=O)Nc3ccc(N(C)C)cc3)cc2c(=O)n1C | inconclusive: 5.62 µM [inhibitor, single point] | –
61 | CCOC(=O)C1CCN(C(=O)CSc2c3c(nc4ccccc24)CCC3)CC1 | inconclusive: 35.5 µM [inhibitor, single point] | –
62 | O=C(c1cc([N+](=O)[O-])ccc1N1CCOCC1)N1CCCCC1 | inconclusive: 6.31 µM [inhibitor, single point] | –
63 | CCOC(=O)N1CCN(C(=O)CSc2nnc(Cc3cccn3C)n2CCc2ccccc2)CC1 | inconclusive: 0.251 µM [inhibitor, full curve, poor fit] | –
